Hit rate of the full screen: of about 39,000 compounds, about 220 (0.56%) showed activity. The list shows a part of the results.
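Also: static incubation at 37 °C against the wild-type strain, values averaged over two biological replicates.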

The test relates to Escherichia coli K-12 BW25113. Description: relative growth (OD600 normalised to plate interquartile mean) (fraction); higher = less growth inhibition, active = 0.2 or less. Conditions: 50 µM; LB; incubation time: overnight (16-24 h).
For the compound `C[C@H]1CN([C@@H](C)CO)C(=O)c2cc(NC(=O)Nc3ccc4c(c3)OCO4)ccc2O[C@H]1CN(C)C(=O)Nc1cccc2ccccc12`, the relative growth is inactive: 1.01.

Consider `Cc1ccc(-c2ccc3c(c2)O[C@H](CN(C)Cc2cncnc2)[C@@H](C)CN([C@@H](C)CO)S3(=O)=O)cc1`, for which the relative growth is inactive: 1.01.

Take `Cc1ccc2c(Cl)cc(Cl)c(O)c2n1`: the relative growth was inactive: 1.1.

For the compound `COc1ccc2c3c([nH]c2c1)[C@H](CO)N(CC1CCCCC1)C[C@]13CN(C1)C(=O)Nc1cccc(c1)F`, the relative growth is inactive: 1.02.

For `C[C@H]1CCCCO[C@H](CN(C)C(=O)c2ccccc2)[C@@H](C)CN([C@@H](C)CO)C(=O)c2cc(NC(=O)c3ccccc3)ccc2O1`, the relative growth was inactive: 1.03.

Consider `C[C@@H]1CCCCO[C@H](CN(C)S(=O)(=O)c2ccccc2)[C@@H](C)CN([C@H](C)CO)C(=O)c2cc(NC(=O)Nc3ccc4c(c3)OCO4)ccc2O1`, for which the relative growth was inactive: 1.

With `C[C@H](CO)N1C[C@H](C)[C@@H](CN(C)S(C)(=O)=O)Oc2ccc(NS(=O)(=O)c3ccc(Cl)cc3)cc2C1=O`, the relative growth is inactive: 0.988.

As for `c1cn2c3c(n1)CCCc3c1cc(C3CCCCC3)ccc12`, the relative growth is inactive: 1.06.

Turning to `Cc1ccc(S(=O)(=O)N2C[C@@H](O)COC[C@@H]3O[C@@H](CC(=O)N[C@@H]4CCN(Cc5ccccc5)C4)CC[C@H]32)cc1`, the relative growth was inactive: 1.02.

With `C[C@@H]1CCCCO[C@H](CN(C)Cc2ccc(C(=O)Nc3ccccc3N)cc2)[C@H](C)CN([C@H](C)CO)C(=O)c2cc(N(C)C)ccc2O1`, the relative growth was inactive: 0.986.

Consider `Cc1noc(C)c1S(=O)(=O)Nc1ccc2c(c1)C(=O)N([C@H](C)CO)C[C@H](C)[C@H](CN(C)Cc1ccc(C(=O)Nc3ccccc3N)cc1)OCCCC[C@@H](C)O2`, for which the relative growth is inactive: 0.903.

For the compound `C[C@H](CO)N1C[C@H](C)[C@H](CN(C)C(=O)Cc2ccncc2)Oc2ncc(C#Cc3ccccc3F)cc2C1=O`, the relative growth was inactive: 0.964.

Take `C[C@@H]1CN([C@H](C)CO)C(=O)c2cccc(NC(=O)C3CCCCC3)c2O[C@@H]1CN(C)Cc1ccc(-c2ccccc2)cc1`: the relative growth is inactive: 1.06.

Take `COc1ccc(S(=O)(=O)Nc2ccc3c(c2)C(=O)N([C@H](C)CO)C[C@@H](C)[C@@H](CN(C)Cc2ccc(Cl)c(Cl)c2)OCCCC[C@H](C)O3)cc1`: the relative growth was inactive: 0.975.

Take `C[C@@H]1CCCCO[C@@H](CN(C)C(=O)Cc2ccccc2)[C@H](C)CN([C@@H](C)CO)C(=O)c2cc(NC(=O)CCC(F)(F)F)ccc2O1`: the relative growth is inactive: 0.971.

Turning to `C[C@H](CO)N1C[C@H](C)[C@@H](CN(C)S(=O)(=O)c2cn(C)cn2)Oc2c(NC(=O)C3CCOCC3)cccc2C1=O`, the relative growth is inactive: 0.921.

In the case of `C[C@H]1CN([C@@H](C)CO)C(=O)c2cccc(NS(=O)(=O)c3ccccc3)c2O[C@H]1CN(C)Cc1ccc(-c2ccccc2)cc1`, the relative growth was inactive: 0.98.

Regarding `OC[C@H]1NC[C@@H](O)[C@@H](O)[C@@H]1O`, the relative growth is inactive: 0.918.

As to `C[C@H](CO)N1C[C@H](C)[C@H](CN(C)Cc2ccncc2)OCCCC[C@H](C)Oc2ccc(NC(=O)NC3CCCCC3)cc2C1=O`, the relative growth was inactive: 1.02.

In the case of `Cc1noc(C)c1S(=O)(=O)Nc1ccc2c(c1)C(=O)N([C@H](C)CO)C[C@H](C)[C@H](CN(C)S(=O)(=O)c1cn(C)cn1)OCCCC[C@@H](C)O2`, the relative growth was inactive: 1.02.

For `C[C@H](CO)N1C[C@H](C)[C@H](CN(C)Cc2ccc(Oc3ccccc3)cc2)Oc2c(NC(=O)C3CCOCC3)cccc2C1=O`, the relative growth was inactive: 0.992.

Turning to `C[C@@H]1CN([C@@H](C)CO)C(=O)CCCn2nncc2CO[C@H]1CN(C)S(C)(=O)=O`, the relative growth was inactive: 0.975.

For `Cc1noc(C)c1NC(=O)N(C)C[C@H]1OCCCC[C@H](C)Oc2ccc(NS(=O)(=O)c3ccccc3)cc2C(=O)N([C@@H](C)CO)C[C@@H]1C`, the relative growth is inactive: 1.

For the compound `Cn1cnc(S(=O)(=O)N[C@@H]2CC[C@@H](CC(=O)N3CCN(c4ccccc4)CC3)O[C@H]2CO)c1`, the relative growth is inactive: 1.01.

In the case of `C[C@H](CO)N1C[C@H](C)[C@@H](CN(C)CC2CCCCC2)Oc2ccc(NC(=O)Cc3cn(C)c4ccccc34)cc2CC1=O`, the relative growth was inactive: 0.997.

On to `COc1ccc(NC(=O)Nc2ccc3c(c2)[C@H]2C[C@H](CC(=O)NCc4ccncc4)O[C@H](CO)[C@H]2O3)cc1`, for which the relative growth is inactive: 0.977.

Regarding `COCC(=O)Nc1ccc2c(c1)OC[C@@H](C)N(Cc1ccccc1F)C[C@@H](C)[C@H](OC)CN(C)C2=O`, the relative growth was inactive: 1.01.

`C[C@H](CO)N1C[C@H](C)[C@H](CN(C)C(=O)Nc2cccc3ccccc23)OCCCC[C@H](C)Oc2ccc(NS(=O)(=O)c3cn(C)cn3)cc2C1=O`: the relative growth is inactive: 0.911.

Take `CCOc1cc(OCC)cc(C(=O)N[C@@H](Cc2ccc(-n3cc(-c4ccc(C(=O)NO)s4)nn3)cc2)C(=O)OC)c1`: the relative growth was inactive: 0.962.

With `O=C(C[C@@H]1CC[C@H](NC(=O)CN2CCOCC2)[C@H](CO)O1)NC1CCC1`, the relative growth was inactive: 0.968.

As for `C[C@@H]1CN([C@@H](C)CO)C(=O)Cc2cc(NS(C)(=O)=O)ccc2O[C@@H]1CN(C)S(C)(=O)=O`, the relative growth is inactive: 0.999.

With `C[C@H](CO)N1C[C@H](C)[C@@H](CN(C)C(=O)Nc2ccc(C(F)(F)F)cc2)Oc2ncc(/C=C/c3ccccc3)cc2C1=O`, the relative growth is inactive: 1.01.

For `C[C@@H]1CCCCO[C@@H](CN(C)C(=O)Nc2ccc(F)cc2)[C@@H](C)CN([C@H](C)CO)C(=O)c2cc(NC(=O)CCCCCC(=O)Nc3ccccc3N)ccc2O1`, the relative growth is inactive: 1.05.

As to `CN1C2CCC1CC(OC(=O)c1c[nH]c3ccccc13)C2.Cl` (stereo not given), the relative growth was inactive: 1.13.

On to `CC(C)NC(=O)Nc1cccc2c1O[C@@H](CN(C)C(=O)NC1CCCCC1)[C@H](C)CN([C@H](C)CO)C2=O`, for which the relative growth was inactive: 1.02.

Take `O=C(OCc1ccccc1)c1ccccc1`: the relative growth was inactive: 0.931.

For the compound `Cc1ccc(S(=O)(=O)Nc2ccc3c(c2)CC(=O)N([C@@H](C)CO)C[C@H](C)[C@@H](CN(C)C(=O)Nc2ccc(C(F)(F)F)cc2)O3)cc1`, the relative growth is inactive: 0.973.

As to `C[C@H](CO)N1C[C@H](C)[C@H](CN(C)S(=O)(=O)c2cccc(F)c2)Oc2ncc(C#Cc3ccc(F)cc3)cc2C1=O`, the relative growth was inactive: 1.

Regarding `COc1ccc(S(=O)(=O)N(C)C[C@H]2Oc3ccc(NC(=O)NC(C)C)cc3CC(=O)N([C@@H](C)CO)C[C@@H]2C)cc1`, the relative growth is inactive: 1.

For the compound `COc1ccc(CN(C)C[C@H]2OCCCC[C@@H](C)Oc3ccc(NC(=O)CCC(F)(F)F)cc3C(=O)N([C@@H](C)CO)C[C@H]2C)cc1`, the relative growth was inactive: 1.01.

On to `C[C@@H]1CN([C@@H](C)CO)C(=O)c2cc(NC(=O)C3CCCCC3)ccc2O[C@H]1CN(C)Cc1ccc(Cl)c(Cl)c1`, for which the relative growth is inactive: 0.953.

On to `COc1ccc(CN(C)C[C@H]2Oc3c(NC(=O)c4ccc(-c5nccs5)cc4)cccc3C(=O)N([C@@H](C)CO)C[C@@H]2C)cc1`, for which the relative growth was inactive: 1.03.

Regarding `C[C@H](CO)N1C[C@H](C)[C@H](CN(C)C(=O)Nc2cccc3ccccc23)Oc2ccc(NS(=O)(=O)c3cccs3)cc2C1=O`, the relative growth is inactive: 1.01.

For the compound `Nc1cnn(-c2ccccc2)c(=O)c1N`, the relative growth is inactive: 1.01.

For the compound `C[C@@H]1CN([C@H](C)CO)C(=O)CCCn2cc(nn2)CO[C@@H]1CN(C)Cc1cccc2c1OCCCO2`, the relative growth was inactive: 0.961.

With `CC(C)NC(=O)N(C)C[C@H]1OCCCC[C@H](C)Oc2ccc(NC(=O)Nc3cccc4ccccc34)cc2C(=O)N([C@H](C)CO)C[C@H]1C`, the relative growth is inactive: 0.976.

For the compound `CC(C)NC(=O)N(C)C[C@H]1Oc2ccc(NS(=O)(=O)c3ccccc3)cc2CC(=O)N([C@H](C)CO)C[C@@H]1C`, the relative growth is inactive: 1.02.

As to `CC(C)CNC(=O)C(=O)NC(C)C`, the relative growth is inactive: 0.942.

For the compound `C[C@@H]1CN([C@@H](C)CO)C(=O)c2cc(-c3ccc(C(=O)N(C)C)cc3)cnc2O[C@H]1CN(C)C(=O)CN(C)C`, the relative growth is inactive: 1.02.

Take `N#CNC1=NCN(CCN2CCOCC2)CN1`: the relative growth is inactive: 1.05.

Take `C[C@@H]1CN([C@@H](C)CO)C(=O)c2cc(NC(=O)Nc3ccccc3)ccc2O[C@@H]1CN(C)Cc1ccc(Cl)c(Cl)c1`: the relative growth was inactive: 1.01.

`COCC#Cc1ccc2c(c1)O[C@@H](CN(C)S(=O)(=O)c1cccc(F)c1)[C@H](C)CN([C@H](C)CO)S2(=O)=O`: the relative growth was inactive: 1.03.

For the compound `COc1ccc(S(=O)(=O)Nc2ccc3c(c2)CC(=O)N([C@H](C)CO)C[C@@H](C)[C@@H](CN(C)S(=O)(=O)c2ccc(OC)cc2)O3)cc1`, the relative growth was inactive: 0.975.

Take `C[C@H](NC(=O)[C@@H](Cc1ccc2ccccc2c1)NC(=O)[C@@H](C)N)C(=O)N[C@@H](Cc1c[nH]c2ccccc12)C(=O)N[C@H](Cc1ccccc1)C(=O)N[C@@H](CCCCN)C(N)=O`: the relative growth is inactive: 0.98.

In the case of `[O-][NH2+]N(O)c1ccccc1`, the relative growth is inactive: 0.988.

For `N[C@@H](CC(=O)NO)C(=O)O`, the relative growth is inactive: 1.02.

`COc1ccc([Si](C)(C)[C@@H]2[C@@H](CC(=O)N(CCO)Cc3ccccc3)O[C@]3(C(=O)N(Cc4cccc(N5CCOC5=O)c4)c4ccccc43)[C@H]2C)cc1`: the relative growth is inactive: 1.02.

For the compound `CC(C)NC(=O)N(C)C[C@@H]1Oc2ccc(NS(=O)(=O)c3ccc(F)cc3)cc2CC(=O)N([C@@H](C)CO)C[C@H]1C`, the relative growth was inactive: 1.02.

Regarding `C[C@@H]1CCCCO[C@H](CN(C)C(=O)Nc2cccc3ccccc23)[C@@H](C)CN([C@H](C)CO)C(=O)c2cc(NC(=O)Nc3ccc(F)cc3)ccc2O1`, the relative growth is inactive: 1.

Take `CN1CCN(c2ccc(OC(F)(F)F)c(Nc3ncc4c(n3)-c3c(c(C(N)=O)nn3CCO)CC4)c2)CC1`: the relative growth was inactive: 0.989.

Values taken from the supplement of paper PMC9446081.
